± gives the standard error. Variants at the floor of the assay are shown more often than the library holds them.
B1: glmS ribozyme (parent)
chain: AUAAAAGCGCCAGAACUACAGAAAUGUAGUUGACGAGGAGGAGGUUUAUCGAAUUUUCGGCGGAUGCCUCCAAA

Variants of: B1
Test: self-cleavage kobs at 2500 uM GlcN6P; higher = faster cleavage; RNA array
Conditions: with glucosamine-6-phosphate
In short: (§1)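 kcat and KM were obtained from weighted Michaelis–Menten fits across concentrations of kobs values. Those came from one- or two-exponential decay fits to per-tile medians normalised to baseline and to non-cleaving reference variants. The variants were barcoded ribozymes transcribed in situ by E. coli RNA polymerase on sequenced MiSeq chips and tracked through a hybridised Cy3 probe at 37 °C, with 40 μM to 10 mM glucosamine-6-phosphate in HEPES/KCl/Mg(OAc)2 buffer flowed in.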

Variant	self-cleavage kobs at 2500 uM GlcN6P [s⁻¹]
AUAAAAGCGCCAUAACUACAGAAAUGUAGUUGACGACGCGGAGGUUUAUCGAAUUUUCGGCGGAUGCCUCCAAA [G13U G37C A39C]	< 1e-05
AUAAAAGCGCCAUAACUACAGAAAUGUAGUGGACGACGAGGAGGUUUCUCGAAUUUUCGGCGGAUGCCUCCAAA [G13U U31G G37C A48C]	< 1e-05
AUAAAAGCGCCAUAACUACAGAAAUGUAGUUGACGAGGAGGAGGUAUAUCGAAUUCUCGGCGGAUGCCUGUAAA [G13U U46A U56C C70G C71U]	< 1e-05
AUAAAAGCGCCAGCACUACAGAAAUGUAGUUGACGGGGAUGAGGUUUAUCGAUUUCUCGGCGGAUGCCUCCAAA [A14C A36G G40U A53U U56C]	< 1e-05
AUAAAAGCGCCAGCACUACAGAAAUGUAGUUGACGUGGAGGAGGUUUAUCGAAUAUUCGGCGGAUGCCUCCAAA [A14C A36U U55A]	< 1e-05
AUAAAAGCGCCAGCAAUACAGAAAUGUAGUUGACGAGGAGGAGGUUUAUCGAAUUUUCGGCGUAUGCCUCCAAA [A14C C16A G63U]	< 1e-05
AUAAAAGCGCCAGCACUACAGAAAUGUAGUUGACAAGGAGGAGGUUUAGCGAAUUUUCGGCGGAUGCCUCCAAA [A14C G35A U49G]	< 1e-05
AUAAAAGCGCCAGCACUACAGAAAUGUAGUUGACGAGGAGGAGGAUUAUCGAAUUUUCGGCGGUUGCCUCCAAA [A14C U45A A64U]	4.3e-05 ± 1.9e-05
AUAAAAGCGCCAGCACUACAGAAAUGUAGUUGACGAGGAGGAGGGUUAUCGAAUUUUCGGCGGAUGCUUCCAAA [A14C U45G C68U]	3.4e-05 ± 1.6e-05
AUAAAAGCGCCAGCACUACAGAAAUGUAGUUGACGAGGAGGAGGUCUAUAGAAUUUCCGGUGGACGCCUCCAAA [A14C U46C C50A U57C C61U U65C]	< 1e-05
AUAAAAGCGCCAGCACUACAGAAAUGUAGUUGACGAGGAGGAGGUUAAUCGAAUUUGCGUCGGAUGCCUCCAAA [A14C U47A U57G G60U]	< 1e-05
AUAAAAGCGCCAGGGCUACAGAAAUGUAGUUGACGCGGAGGAGGUUUAUCGAGUUUUCGGCGGAUGCCUCCAAA [A14G A15G A36C A53G]	< 1e-05
AUAAAAGCGCCAGGACUACAGAAAUGUAGUUGUCGAGGAGGAGAUUUAUCGAAUUUUCGGCGGAAGCCUCCAAA [A14G A33U G44A U65A]	< 1e-05
AUAAAAGCGCCAGGACUACAGAAAUGUAGUUGACGAGGAGGGGGUUAAACGAAUCUUCGGCGGAUGCCUCCAAA [A14G A42G U47A U49A U55C]	< 1e-05
AUAAAAGCGCCAGGACUACAGAAAUGUAGUUGAGGAGGAGGAGGUUUAUCGUAUUUUCGGCGGAUGCCUCCAAA [A14G C34G A52U]	< 1e-05
AUAAAAGCGCCAGGACUACAGAAAUGUAGUUAACGAGGAGGAGGUUUAUCGAAUUUUCGUCGGACGCCUCCAAA [A14G G32A G60U U65C]	< 1e-05
AUAAAAGCGCCAGGACUACAGAAAUGUAGUUUACGAGGAGGAGGUUUAUCGAAUUUGCGGCGGUUGCCUCCAAA [A14G G32U U57G A64U]	< 1e-05
AUAAAAGCGCCAGGACUACAGAAAUGUAGUUGACGAGGAGGAGGUUUAUCCAAUUUUCGGCCGAAGCGUACAAA [A14G G51C G62C U65A C68G C70A]	< 1e-05

Variant	self-cleavage kobs at 2500 uM GlcN6P [s⁻¹]
AUAAAAGCGCCAGGACUACAGAAAUGUAGUUGACGAGGAGGAGGUUUAUCGAAUUUUCGCCAGAUGCCUCCAAA [A14G G60C G62A]	< 1e-05
AUAAAAGCGCCAGUACUACAGAAAUGUAGUUGACGUGGAGGACGUUUAUCGAAUUUUCGGCGGAUGCCUCCAAA [A14U A36U G43C]	< 1e-05
AUAAAAGCGCCAGUAAUACAGAAAUGUAGUUGACGAGGAGCAGGUUUAUCGAAUUUUCGGCGGAUGCCUCCAAA [A14U C16A G41C]	< 1e-05
AUAAAAGCGCCAGUACUACAGAAAUGUAGUUGACGACGAGGCGGUUUAUCGAAUUUUCGGCGGAUGCCUCCAAA [A14U G37C A42C]	< 1e-05
AUAAAAGCGCCAGUACUACAGAAAUGUAGUUGACGAGGAGGAUGUUUAUCGAAUUUUCGGCUGAUGCCUCCAAA [A14U G43U G62U]	< 1e-05
AUAAAAGCGCCAGUACUACAGAAAUGUAGUUGACGAGGAGGAGGUUUAUCGAAUUUUCGGCGCACGCCUCCAAA [A14U G63C U65C]	< 1e-05
AUAAAAGCGCCAGUACUACAGAAAUGUAGUAGACGAGGAGGAGGUUUAUCGAAUUUAUCGCGGAUGCCUCCAAA [A14U U31A U57A C58U G59C]	< 1e-05
AUAAAAGCGCCAGUACUACAGAAAUGUAGUUGACGAGGAGGAGGGUAAUCGAACUUUCGGCUGAUGCCUCCAAA [A14U U45G U47A U54C G62U]	< 1e-05
AUAAAAGCGCCAGUACUACAGAAAUGUAGUUGACGAGGAGGAGGUAUACCGAAUUUUCGGAGGAUGCCUCCAAA [A14U U46A U49C C61A]	< 1e-05
AUAAAAGCGCCAGACCUACAGAAAUGUAGUUGACGAGGGGGAGGUUGAUCGAUUUUUCGGCGGAUGCCUCCAAA [A15C A39G U47G A53U]	0.000235 ± 8.5e-05
AUAAAAGCGCCAGACCUACAGAAAUGUAGUUGACGAGGAGGCGGUUUAUCGAAUUUUCGGCGGAUGCUUCCAAA [A15C A42C C68U]	< 1e-05
AUAAAAGCGCCAGACCUACAGAAAUGUAGUUGACGAGGAGGAGGUUUGUCGUAUUUUCGGCGGAUGUCUCCAAA [A15C A48G A52U C67U]	< 1e-05
AUAAAAGCGCCAGACCUACAGAAAUGUAGUUGACGAGGAGGAGGUUUAUCGAAUUUUCGGAUGAUGCCUCGAAA [A15C C61A G62U C71G]	< 1e-05
AUAAAAGCGCCAGACCUACAGAAAUGUAGUUGACAAGGAAGAGGUUUAUCGAAUUUUCGGCGUAUGCCUCCAAA [A15C G35A G40A G63U]	< 1e-05
AUAAAAGCGCCAGACCUACAGAAAUGUAGUUGACUAGGAGGAGGUGUAUCGAAUUUUCGGCGGAUGCCUCUAAA [A15C G35U U46G C71U]	< 1e-05
AUAAAAGCGCCAGACCUACAGAAAUGUAGUUGACGAAGGGGAAGUCUAUCGAAUUUUCGGCGGAUGCCUCCAAA [A15C G37A A39G G43A U46C]	< 1e-05
AUAAAAGCGCCAGACCUACAGAAAUGUAGUUGACGAUGGGGAGGUUUAUCGAAUUUUCGGCGGAUGCCUCCAAA [A15C G37U A39G]	< 1e-05
AUAAAAGCGCCAGACCUACAGAAAUGUAGUUGACGAGUAGGAGGUUUAUCGAAUUUUCGGCCGAUUCCUCCAAA [A15C G38U G62C G66U]	< 1e-05

Variants of: B1
Test: self-cleavage kobs at 10000 uM GlcN6P; higher = faster cleavage; RNA array
Conditions: with glucosamine-6-phosphate
In short: as §1

Variant	self-cleavage kobs at 10000 uM GlcN6P [s⁻¹]
AUAAAAGCGCCAGGACUACAGAAAUGUAGUUGAGGAGGAGGAGGUUUAUCGUAUUUUCGGCGGAUGCCUCCAAA [A14G C34G A52U]	< 1e-05

From the supplement of paper PMC7125110
